# Data reported in the supplement of paper PMC8728848.
# The other results are listed elsewhere or left out.
# B1: Dectin-1 (Mus musculus), Q6QLQ4 (protein)
# chain: EYGHNSGRNPEEKDNFLSRNKENHKPTESSLDEKVAPSKASQTTGGFSQPCLPNWIMHGKSCYLFSFSGNSWYGSKRHCSQLGAHLLKIDNSKEFEFIESQTSSHRINAFWIGLSRNQSEGPWFWEDGSAFFPNSFQVRNTAPQESLLHNCVWIHGSEVYNQICNTSSYSICEKEL
# Assays:
# Assay in all cases: glycan array binding signal (z-score within array); higher = stronger binding
# Conditions in all cases: glycan notation: IUPAC condensed, linker removed
# [1] = biological target: Glc(a1-4)Glc(a1-4)Glc(a1-4)Glc(a1-4)Glc(a1-4)Glc(a1-4)Glc(a1-4)Glc(a1-4)Glc(a1-4)Glc(a1-4)Glc(a1-4)Glc
# Method in brief: (§1)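 The binding signal is a Z-score computed within each array and averaged over linkers. Arrays of the same protein sequence at different concentrations or buffers were also averaged together. Data originate from 3228 arrays in the Consortium for Functional Glycomics database, kept only where the protein sequence was available.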
# [2] = biological target: Glc(a1-4)Glc(a1-4)Glc(a1-4)Glc(a1-4)Glc(a1-4)Glc(a1-4)Glc(a1-4)Glc(a1-4)Glc(a1-4)Glc(a1-4)Glc(a1-4)Glc(a1-4)Glc
# Method in brief: as §1
# [3] = biological target: Glc(a1-4)Glc(a1-6)Glc
# Method in brief: as §1
# [4] = biological target: Glc(a1-6)Glc
# Method in brief: as §1
# [5] = biological target: Glc(a1-6)Glc(a1-4)Glc
# Method in brief: as §1
# [6] = biological target: Glc(a1-6)Glc(a1-4)Glc(a1-4)Glc
# Method in brief: as §1
# [7] = biological target: Glc(a1-6)Glc(a1-4)Glc(a1-4)Glc(a1-6)Glc(a1-4)Glc(a1-4)Glc
# Method in brief: as §1
# [8] = biological target: Glc(a1-6)Glc(a1-6)Glc
# Method in brief: as §1
# [9] = biological target: Glc(a1-6)Glc(a1-6)Glc(a1-6)Glc
# Method in brief: as §1
# [10] = biological target: Glc(a1-6)Glc(a1-6)Glc(a1-6)Glc(a1-6)Glc
# Method in brief: as §1
# [11] = biological target: Glc(a1-6)Glc(a1-6)Glc(a1-6)Glc(a1-6)Glc(a1-6)Glc
# Method in brief: as §1
# [12] = biological target: Glc(a1-6)Glc(a1-6)Glc(a1-6)Glc(a1-6)Glc(a1-6)Glc(a1-6)Glc
# Method in brief: as §1
# [13] = biological target: Glc(a1-6)Glc(a1-6)Glc(a1-6)Glc(a1-6)Glc(a1-6)Glc(a1-6)Glc(a1-6)Glc
# Method in brief: as §1
# [14] = biological target: Glc(a1-6)Glc(a1-6)Glc(a1-6)Glc(a1-6)Glc(a1-6)Glc(a1-6)Glc(a1-6)Glc(a1-6)Glc
# Method in brief: as §1
# [15] = biological target: Glc(a1-6)Glc(a1-6)Glc(a1-6)Glc(a1-6)Glc(a1-6)Glc(a1-6)Glc(a1-6)Glc(a1-6)Glc(a1-6)Glc
# Method in brief: as §1
# [16] = biological target: Glc(a1-6)Glc(a1-6)Glc(a1-6)Glc(a1-6)Glc(a1-6)Glc(a1-6)Glc(a1-6)Glc(a1-6)Glc(a1-6)Glc(a1-6)Glc
# Method in brief: as §1
# [17] = biological target: Glc(a1-6)Glc(a1-6)Glc(a1-6)Glc(a1-6)Glc(a1-6)Glc(a1-6)Glc(a1-6)Glc(a1-6)Glc(a1-6)Glc(a1-6)Glc(a1-6)Glc
# Method in brief: as §1
# [18] = biological target: Glc(a1-6)Glc(a1-6)Glc(a1-6)Glc(a1-6)Glc(a1-6)Glc(a1-6)Glc(a1-6)Glc(a1-6)Glc(a1-6)Glc(a1-6)Glc(a1-6)Glc(a1-6)Glc
# Method in brief: as §1
# [19] = biological target: Glc(b1-2)Glc
# Method in brief: as §1
# [20] = biological target: Glc(b1-2)Glc(b1-2)Glc
# Method in brief: as §1
# [21] = biological target: Glc(b1-2)Glc(b1-2)Glc(b1-2)Glc
# Method in brief: as §1
# [22] = biological target: Glc(b1-2)Glc(b1-2)Glc(b1-2)Glc(b1-2)Glc
# Method in brief: as §1
# [23] = biological target: Glc(b1-2)Glc(b1-2)Glc(b1-2)Glc(b1-2)Glc(b1-2)Glc
# Method in brief: as §1
# [24] = biological target: Glc(b1-2)Glc(b1-2)Glc(b1-2)Glc(b1-2)Glc(b1-2)Glc(b1-2)Glc
# Method in brief: as §1
# [25] = biological target: Glc(b1-2)Glc(b1-2)Glc(b1-2)Glc(b1-2)Glc(b1-2)Glc(b1-2)Glc(b1-2)Glc
# Method in brief: as §1
# [26] = biological target: Glc(b1-2)Glc(b1-2)Glc(b1-2)Glc(b1-2)Glc(b1-2)Glc(b1-2)Glc(b1-2)Glc(b1-2)Glc
# Method in brief: as §1
# [27] = biological target: Glc(b1-2)Glc(b1-2)Glc(b1-2)Glc(b1-2)Glc(b1-2)Glc(b1-2)Glc(b1-2)Glc(b1-2)Glc(b1-2)Glc
# Method in brief: as §1
# [28] = biological target: Glc(b1-2)Glc(b1-2)Glc(b1-2)Glc(b1-2)Glc(b1-2)Glc(b1-2)Glc(b1-2)Glc(b1-2)Glc(b1-2)Glc(b1-2)Glc
# Method in brief: as §1
# [29] = biological target: Glc(b1-2)Glc(b1-2)Glc(b1-2)Glc(b1-2)Glc(b1-2)Glc(b1-2)Glc(b1-2)Glc(b1-2)Glc(b1-2)Glc(b1-2)Glc(b1-2)Glc
# Method in brief: as §1
# [30] = biological target: Glc(b1-2)Glc(b1-2)Glc(b1-2)Glc(b1-2)Glc(b1-2)Glc(b1-2)Glc(b1-2)Glc(b1-2)Glc(b1-2)Glc(b1-2)Glc(b1-2)Glc(b1-2)Glc
# Method in brief: as §1
# [31] = biological target: Glc(b1-3)Glc
# Method in brief: as §1
# [32] = biological target: Glc(b1-3)Glc(b1-3)Glc
# Method in brief: as §1
# [33] = biological target: Glc(b1-3)Glc(b1-3)Glc(b1-3)Glc
# Method in brief: as §1
# [34] = biological target: Glc(b1-3)Glc(b1-3)Glc(b1-3)Glc(b1-3)Glc
# Method in brief: as §1
# [35] = biological target: Glc(b1-3)Glc(b1-3)Glc(b1-3)Glc(b1-3)Glc(b1-3)Glc
# Method in brief: as §1
# [36] = biological target: Glc(b1-3)Glc(b1-3)Glc(b1-3)Glc(b1-3)Glc(b1-3)Glc(b1-3)Glc
# Method in brief: as §1
# [37] = biological target: Glc(b1-3)Glc(b1-3)Glc(b1-3)Glc(b1-3)Glc(b1-3)Glc(b1-3)Glc(b1-3)Glc
# Method in brief: as §1
# [38] = biological target: Glc(b1-3)Glc(b1-3)Glc(b1-3)Glc(b1-3)Glc(b1-3)Glc(b1-3)Glc(b1-3)Glc(b1-3)Glc
# Method in brief: as §1
# [39] = biological target: Glc(b1-3)Glc(b1-3)Glc(b1-3)Glc(b1-3)Glc(b1-3)Glc(b1-3)Glc(b1-3)Glc(b1-3)Glc(b1-3)Glc
# Method in brief: as §1
# [40] = biological target: Glc(b1-3)Glc(b1-3)Glc(b1-3)Glc(b1-3)Glc(b1-3)Glc(b1-3)Glc(b1-3)Glc(b1-3)Glc(b1-3)Glc(b1-3)Glc
# Method in brief: as §1
# [41] = biological target: Glc(b1-3)Glc(b1-3)Glc(b1-3)Glc(b1-3)Glc(b1-3)Glc(b1-3)Glc(b1-3)Glc(b1-3)Glc(b1-3)Glc(b1-3)Glc(b1-3)Glc
# Method in brief: as §1
# [42] = biological target: Glc(b1-3)Glc(b1-3)Glc(b1-3)Glc(b1-3)Glc(b1-3)Glc(b1-3)Glc(b1-3)Glc(b1-3)Glc(b1-3)Glc(b1-3)Glc(b1-3)Glc(b1-3)Glc
# Method in brief: as §1
# [43] = biological target: Glc(b1-3)Glc(b1-3)Glc(b1-3)Glc(b1-3)Glc(b1-3)Glc(b1-3)Glc(b1-3)[Glc(b1-6)]Glc(b1-3)Glc
# Method in brief: as §1
binder,measurement,setting,value
B1,glycan array binding signal (z-score),[1],-0.056
same,glycan array binding signal (z-score),[2],-0.07
same,glycan array binding signal (z-score),[3],0.079
same,glycan array binding signal (z-score),[4],-0.182
same,glycan array binding signal (z-score),[5],0.294
same,glycan array binding signal (z-score),[6],0.353
same,glycan array binding signal (z-score),[7],-0.008
same,glycan array binding signal (z-score),[8],-0.174
same,glycan array binding signal (z-score),[9],-0.182
same,glycan array binding signal (z-score),[10],-0.091
same,glycan array binding signal (z-score),[11],-0.182
same,glycan array binding signal (z-score),[12],-0.165
same,glycan array binding signal (z-score),[13],-0.161
same,glycan array binding signal (z-score),[14],-0.167
same,glycan array binding signal (z-score),[15],-0.177
same,glycan array binding signal (z-score),[16],-0.153
same,glycan array binding signal (z-score),[17],-0.164
same,glycan array binding signal (z-score),[18],-0.174
same,glycan array binding signal (z-score),[19],-0.206
same,glycan array binding signal (z-score),[20],-0.206
same,glycan array binding signal (z-score),[21],-0.206
same,glycan array binding signal (z-score),[22],-0.206
same,glycan array binding signal (z-score),[23],-0.206
same,glycan array binding signal (z-score),[24],-0.206
same,glycan array binding signal (z-score),[25],-0.206
same,glycan array binding signal (z-score),[26],-0.206
same,glycan array binding signal (z-score),[27],-0.206
same,glycan array binding signal (z-score),[28],-0.206
same,glycan array binding signal (z-score),[29],-0.166
same,glycan array binding signal (z-score),[30],-0.182
same,glycan array binding signal (z-score),[31],-0.156
same,glycan array binding signal (z-score),[32],-0.162
same,glycan array binding signal (z-score),[33],-0.133
same,glycan array binding signal (z-score),[34],-0.164
same,glycan array binding signal (z-score),[35],-0.18
same,glycan array binding signal (z-score),[36],-0.174
same,glycan array binding signal (z-score),[37],-0.168
same,glycan array binding signal (z-score),[38],-0.178
same,glycan array binding signal (z-score),[39],-0.177
same,glycan array binding signal (z-score),[40],0.83
same,glycan array binding signal (z-score),[41],5.77
same,glycan array binding signal (z-score),[42],6.71
same,glycan array binding signal (z-score),[43],-0.182
